Consider 57 molecules from PubChem BioAssay AID463173 (ICCB-Longwood Screening Facility, Harvard Medical School, 2010).

Structures are written as SMILES. In all, about 52,000 compounds went through this assay and about 4,300 (8.3%) were called active. Rule as the data show it: active = survival mostly below about 52% (no sharp cut-off); inactive = mostly above about 56%. The list shows a part of the results.

In this assay the test system is DeltatarO mutant. The assay can be described thus: S. aureus survival, RN4220 and DeltatarO strains – OD600, teichoic acid synthesis inhibitors, primary screen (AID 463173). To be noted: S. aureus RN4220 wild type/DeltatarO growth, OD600, 18 h, hits give low values, screened at 18.75 µg/mL (by protocol).
`COCCn1cc(C(=O)NCCCOC(C)C)c2c3ccccc3n(C)c2c1=O`: the survival was inactive: 131%.

`Cc1ccc(Cc2nc3ccccc3nc2SCC(=O)N2CCN(c3ccc(F)cc3)CC2)cc1`: the survival was inactive: 112%.

As for `CCOC(=O)c1noc2nc(C)n(Cc3cccc([N+](=O)[O-])c3)c(=O)c12`, the survival was inactive: 134%.

For the molecule `CCc1nn(CC(=O)NC(C)CCc2ccccc2)c(=O)c2cc3c(OC)cccc3n12` (configuration not stated), the survival is inactive: 75%.

In the case of `Cc1nnc(SCC(=O)NCc2ccccc2Cl)c2nn(-c3ccccc3)c(C)c12`, the survival is inactive: 122%.

As for `CCc1ccc(-n2nc(C)c3c(C)cc(=O)n(CC(=O)Nc4ccc(F)cc4C)c32)cc1`, the survival was inactive: 77%.

As for `Cc1ccc(CNC(=O)CCNS(=O)(=O)c2cccc3nsnc23)cc1`, the survival is inactive: 49%.

As to `CCCN(CCC)CC(O)Cn1cc(/C=C/C(=O)c2ccc(Br)cc2)c2ccccc21` (configuration not stated), the survival was inactive: 66%.

With `CCn1cc(C(=O)N(C)c2ccc(C(C)C)cc2)c2cc(OC)c(OC)cc2c1=O`, the survival is inactive: 117%.

With `Cc1ccc2nc(NC(=O)CSc3ncc(C(=O)Nc4ccc(F)cc4)c(=O)n3C)sc2c1`, the survival was inactive: 112%.

Take `Cc1c(CCC(=O)N2CCCCC2)c(=O)oc2cc3occ(C(C)(C)C)c3cc12`: the survival was inactive: 59%.

With `CCc1ccc(NC(=O)Cn2c(=O)n(-c3ccc(OC)cc3)c(=O)c3ccc(C(=O)NCc4ccc(C)cc4)cc32)cc1`, the survival is inactive: 103%.

In the case of `CC(=N/O)/C(=N\O)c1ccc(C)o1`, the survival was inactive: 93%.

With `Cc1ccc(CN2CCN(C3CCNCC3)C(=O)C2=O)cc1`, the survival was inactive: 82%.

In the case of `COc1ccc(NC(=O)C2CCN(c3ccc(Sc4ccc(C)cc4)nn3)CC2)c(OC)c1`, the survival is inactive: 87%.

`CCC(C(=O)N1CCN(c2cc(C)ccc2C)CC1)n1nc(C)n2c(cc3occc32)c1=O` (configuration not stated): the survival was active: 43%.

Take `Cc1ccc(S(=O)(=O)N2CCc3cc(C(=O)Nc4c(F)cccc4F)ccc32)cc1`: the survival is inactive: 64%.

With `Cc1ccc2c(CN3CCN(C(=O)c4ccc(Br)cc4)CC3)cc(=O)oc2c1`, the survival is inactive: 51%.

Regarding `CCOc1ccc(NC(=O)C2CCCN(c3nnc(C)c4c(C)n(-c5ccccc5)nc34)C2)cc1` (configuration not stated), the survival was inactive: 115%.

On to `Cn1c(=O)c2c(nc(N3CCOCC3)n2Cc2ccc(Br)cc2)n(C)c1=O`, for which the survival is active: 43%.

For the molecule `Cc1nc(NCC2CCCO2)c2c3c(sc2n1)CCC3` (configuration not stated), the survival is inactive: 93%.

Take `COc1ccccc1NC(=O)CSC1=Nc2ccccc2C2=NC(CC(=O)NCc3ccccc3)C(=O)N12` (configuration not stated): the survival was inactive: 71%.

With `COc1ccc(CCNC(=O)C2CCN(S(=O)(=O)c3c(C)noc3/C=C/c3ccc(C)cc3)CC2)cc1OC`, the survival is inactive: 95%.

`CCC(=O)N1CCN(c2ccc(N)cc2)CC1`: the survival is inactive: 93%.

`Cc1ccc(S(=O)(=O)C(CNC(=O)C(=O)NCc2ccccc2C)c2cccs2)cc1` (configuration not stated): the survival was inactive: 85%.

In the case of `CNS(=O)(=O)c1cn(CC(=O)Nc2ccc(C(C)=O)cc2)cc1S(=O)(=O)NC`, the survival is inactive: 69%.

Take `CCCCNS(=O)(=O)c1ccc(C)c(-c2nnc3c4ccccc4c(C)nn23)c1`: the survival is inactive: 94%.

For `Cc1ccc(CN2CCN(C3CCN(C(=O)Nc4ccc(C)cc4Cl)CC3)C(=O)C2=O)cc1`, the survival is inactive: 99%.

Turning to `CC(=O)N1CCc2cc(CNC(=O)c3ccccc3Br)ccc21`, the survival was inactive: 79%.

Turning to `O=C(NCc1cccs1)C1CCN(C(=O)N2CCOc3ccc(Cl)cc32)CC1`, the survival was inactive: 51%.

As to `O=C(Nc1ccc(Br)cc1)c1ccc(F)c(S(=O)(=O)N2CCc3ccccc32)c1`, the survival was inactive: 70%.

In the case of `CC(=O)N1CCc2cc(S(=O)(=O)NC(Cc3ccccc3)C(=O)NCc3ccc(C)cc3)ccc21` (configuration not stated), the survival was inactive: 65%.

On to `C=CC#CC(C)(C)c1ccc(O)c(C)c1`, for which the survival is inactive: 97%.

Turning to `COc1cccc(NC(=O)CSc2nc(=O)n(Cc3ccncc3)c3c2CCC3)c1`, the survival is inactive: 98%.

In the case of `CCNc1nc2c(c(=O)n(Cc3ccccc3)c(=O)n2C)n1Cc1ccccc1`, the survival is inactive: 103%.

With `CC1=C(C(=O)OC2C3CC4CC(C3)CC2C4)C(CC(=O)O)C(=O)N1` (configuration not stated), the survival was inactive: 64%.

In the case of `O=C(OC(C(=O)NCc1ccc2c(c1)OCO2)c1ccncc1)c1ccc(Cl)nc1` (configuration not stated), the survival is inactive: 84%.

Turning to `CN1CCN(CC(=O)Nc2ccc(C(=O)NCC3CCCO3)cc2)CC1` (configuration not stated), the survival is inactive: 100%.

Consider `CC(C)C(=O)NS(=O)(=O)c1ccc(NC(=O)c2ccco2)cc1`, for which the survival was inactive: 90%.

With `CC(C)OC(=O)c1c(-c2ccccc2)c(-c2ccccc2)nn(C)c1=O`, the survival is inactive: 110%.

For `CCOC(=O)c1ccc(NC(=O)CCn2ccc(C)n2)cc1`, the survival is inactive: 94%.

For the molecule `CCOC(=O)c1c(C)[nH]c(CCC(=O)NCc2ccccc2Cl)c1C`, the survival is inactive: 98%.

Regarding `CCOC(=O)c1cccc(Nc2cc(-c3ccccc3)ncn2)c1`, the survival is active: 15%.

Consider `CCOc1ccc(OCC)c(NC(=O)C2CCN(c3nnc(-n4cccc4)s3)CC2)c1`, for which the survival was inactive: 75%.

Take `COc1ccccc1NC(=O)CCN1CCCCC1`: the survival is inactive: 55%.

Regarding `Cc1nc(-c2ccccc2)sc1CCNC(=O)C(=O)Nc1ccc2c(c1)OCO2`, the survival was inactive: 76%.

As for `Cc1c(Cl)cccc1NC(=O)c1ncoc1-c1ccco1`, the survival was inactive: 77%.

Regarding `Cc1ccc(NC(=O)C(C)n2nnc3sc4c(c3c2=O)CCCC4)cc1Cl` (configuration not stated), the survival is inactive: 82%.

In the case of `CN1CC2(C)CN(C(=O)c3ccccc3Cl)CC(C)(C1)C2`, the survival was inactive: 88%.

As to `Oc1ccc(NCc2ccccc2OCc2ccccc2F)cc1`, the survival was inactive: 60%.

In the case of `CC(=O)c1ccc(NC(=O)CCCSc2nc(-c3ccco3)cc(C(F)(F)F)n2)cc1`, the survival is inactive: 98%.

For the molecule `COc1cccc(NC(=O)C2=C(C)C(=O)OC23CCN(C(C)=O)CC3)c1`, the survival is inactive: 87%.

Take `c1ccc(-c2nnc(SCc3cccnc3)o2)cc1`: the survival was active: 54%.

In the case of `COC(=O)CN1C(=O)CSc2ccc(S(=O)(=O)Nc3cccc(C)c3C)cc21`, the survival was inactive: 63%.

Take `Cc1ccc(CN2CCSc3ccc(C(=O)NCC(C)c4ccccc4)cc32)cc1` (configuration not stated): the survival is inactive: 85%.

Regarding `CCC(=O)N1c2ccc(S(=O)(=O)NCc3ccc(F)cc3)cc2CC1C` (configuration not stated), the survival was inactive: 74%.

As for `COc1cc2c(cc1OC)C(COc1ccc3c(C)cc(=O)oc3c1)N(C(=O)c1cc(Cl)ccc1OC)CC2` (configuration not stated), the survival was inactive: 61%.
